Assay results as given in publication PMC7819943, “Rice protein-binding microarrays: a tool to detect cis-acting elements near promoter regions in rice”.
Some of the results follow.

These sequences were tested against T1, OsWOX13 (Oryza sativa, UniProt Q5QMM3 1-267) (assay: protein-binding microarray (RPBM); PBS, 2% BSA, 51.3 ng/ul salmon testes DNA, 50 uM zinc acetate, 200 nM TF, 25 C, 1 h; high values mean tight binding). Details: protein: recombinant; tags: N-terminal polyhistidine and DsRed monomer fusion (pET32a); label: CyDye5-dUTP incorporated in the synthesized complementary strand; 3' TTTTT single-stranded linker to array surface; dsDNA, one strand shown.
T1 sequence: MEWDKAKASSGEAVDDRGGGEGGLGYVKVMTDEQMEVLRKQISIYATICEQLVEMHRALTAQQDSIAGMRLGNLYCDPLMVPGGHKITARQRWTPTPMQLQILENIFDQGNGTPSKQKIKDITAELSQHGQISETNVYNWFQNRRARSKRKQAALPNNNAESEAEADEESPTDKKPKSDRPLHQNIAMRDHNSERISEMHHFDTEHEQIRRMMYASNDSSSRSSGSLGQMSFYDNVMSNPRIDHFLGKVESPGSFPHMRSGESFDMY
Procedure, shortened: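 In PBS with 2% BSA, salmon testes DNA and 50 µM zinc acetate, 200 nM protein was incubated on a custom Agilent array at 25 °C for 1 h and then washed off. The array had been made double-stranded by primer extension with Cy5-dUTP and blocked with 2% BSA. The proteins were transcription factors fused N-terminally to polyhistidine and DsRed, expressed in E. coli BL21-CodonPlus and purified on Ni–NTA. The binding signal is per-feature fluorescence intensity (arbitrary units) from an Axon 4000B scanner.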
In the case of “TACAAATTTATAATGGCATGGTTCTAATTTTCTCTTAGAACGGAGTCACCTAGTGCAG”, the binding signal is reported as 12200 fluorescence intensity (a.u.).
With “ACGCCATGATTTGACAATGTGATGCTACAGTAAACATTTGCGGAGTCACCTAGTGCAG” the binding signal was 23300 fluorescence intensity (a.u.).
In the case of “ATTAGATTTATATTCCTTCTGTCTATATTCTGGACAGGTCCGGAGTCACCTAGTGCAG”, the binding signal is reported as 18300 fluorescence intensity (a.u.).
In the case of “GTCTGATAAGTCTTTGATTTGCTAGTACCGGCATCGCCTGCGGAGTCACCTAGTGCAG”, the binding signal is reported as 14700 fluorescence intensity (a.u.).
“GACACTGACATACATAATCTAATCAAATTATGTACTACCCCGGAGTCACCTAGTGCAG” was tested, and the binding signal was 21200 fluorescence intensity (a.u.).
In the case of “TTTAATTATATTATCACTGACATGTGGGTCCCACTATATGCGGAGTCACCTAGTGCAG”, the binding signal is reported as 34000 fluorescence intensity (a.u.).
In the case of “TATCTCAATAATAATGTTAACGGATTAGATTCCACGCTCTCGGAGTCACCTAGTGCAG”, the binding signal is reported as 3380 fluorescence intensity (a.u.).
With “TTCGAGTTCTTCTTAATTGGAGTTCTTGGAGCAGCATCGGCGGAGTCACCTAGTGCAG” the binding signal was 3590 fluorescence intensity (a.u.).
With “TAAACAGATCCTAATTACTCCTGCACACAACGCGCACGTCCGGAGTCACCTAGTGCAG” the binding signal was 7980 fluorescence intensity (a.u.).
In the case of “CCGCACTCTATTATTGTATTGATTAGCTTGTGTCATTCGCCGGAGTCACCTAGTGCAG”, the binding signal is reported as 20500 fluorescence intensity (a.u.).
“TCTAATCAATCAGAAGATAGACGAGAGATGAGCTGCTTCTCGGAGTCACCTAGTGCAG” was tested, and the binding signal was 34900 fluorescence intensity (a.u.).
In the case of “TAAGTCAAATAAGCCAATCAACGGATTTTCTTTAGTTGAACGGAGTCACCTAGTGCAG”, the binding signal is reported as 17600 fluorescence intensity (a.u.).
For “ATTTTAATTATTTAATCATATATTTGTAAATTTAATTAAACGGAGTCACCTAGTGCAG”, the binding signal was 27900 fluorescence intensity (a.u.).
In the case of “ATCCAAATTAATATGGATGTTAATAAATCTAGGCATATATCGGAGTCACCTAGTGCAG”, the binding signal is reported as 11500 fluorescence intensity (a.u.).
In the case of “TCGTGTAAAAGCCCTGATTGCTAGGGTGAAACTTATAATGCGGAGTCACCTAGTGCAG”, the binding signal is reported as 4320 fluorescence intensity (a.u.).
With “CAAATCAATTATCAGGTTGCAGATTATGCTTTTAGGAAGTCGGAGTCACCTAGTGCAG” the binding signal was 18800 fluorescence intensity (a.u.).
With “GGTGTATGTGACTTCCAAATTAACATATGAAAGTGATGGCCGGAGTCACCTAGTGCAG” the binding signal was 3660 fluorescence intensity (a.u.).
In the case of “CGATAATGACACGGAATTATCTTACTAAGCCCGGATTAATCGGAGTCACCTAGTGCAG”, the binding signal is reported as 12100 fluorescence intensity (a.u.).
In the case of “CCCTCCATTCCAAATTGATCTACATATTTCATAGGTACACCGGAGTCACCTAGTGCAG”, the binding signal is reported as 4100 fluorescence intensity (a.u.).
For “CTTTATTTGTCGTCCAGTCTAATTTTCGTCCCTTGACCGCCGGAGTCACCTAGTGCAG”, the binding signal was 4020 fluorescence intensity (a.u.).
With “TGGATAATAAATCTCACTAATTAATTAATAGTACTAAGGACGGAGTCACCTAGTGCAG” the binding signal was 22000 fluorescence intensity (a.u.).
For “ACGTGACTCAATTGATTAGGTTTCTTAAAGTGGAATCAGCCGGAGTCACCTAGTGCAG”, the binding signal was 23200 fluorescence intensity (a.u.).
With “ATAATGATTAATGAAATACTTAGTGGTTGACCTTGTGCAGCGGAGTCACCTAGTGCAG” the binding signal was 21800 fluorescence intensity (a.u.).
“GACGCGCGCGATCGTCAATCATGCAGACGATCGATCACATCGGAGTCACCTAGTGCAG” was tested, and the binding signal was 7620 fluorescence intensity (a.u.).
For “ATTGAATGACAATAGAATGAAGCTTGAAGTTACATCTAGACGGAGTCACCTAGTGCAG”, the binding signal was 4030 fluorescence intensity (a.u.).
“TACTAAAAGAAATTAAGATTATTCATTAATTTTAGCTATCCGGAGTCACCTAGTGCAG” was tested, and the binding signal was 5410 fluorescence intensity (a.u.).
For “TACATAGTCATCAATCATCACATATCAGCAACACATATCACGGAGTCACCTAGTGCAG”, the binding signal was 14800 fluorescence intensity (a.u.).
In the case of “CCAGCCATGATTGTGGCGCCGTGCTCCTTCTCCTTCGTTCCGGAGTCACCTAGTGCAG”, the binding signal is reported as 5750 fluorescence intensity (a.u.).
In the case of “ACTGATAGTAAATGAATTACTAAAGTCACACATATTATTGCGGAGTCACCTAGTGCAG”, the binding signal is reported as 6140 fluorescence intensity (a.u.).
In the case of “TTCATCATCAGATTAATTATTAAAACGGACTATTTACTCTCGGAGTCACCTAGTGCAG”, the binding signal is reported as 4380 fluorescence intensity (a.u.).
“GCTTTGATTGGCCTGATCTTTCGGTGAGTTGAGATAACTACGGAGTCACCTAGTGCAG” was tested, and the binding signal was 42700 fluorescence intensity (a.u.).
“TAAATTGCCCAATCACAAGATATCTACCACTGTAGGCTGTCGGAGTCACCTAGTGCAG” was tested, and the binding signal was 24600 fluorescence intensity (a.u.).
“ATGGTTGATTGATTGCATATATTTGAACAAATGATCTTTGCGGAGTCACCTAGTGCAG” was tested, and the binding signal was 65500 fluorescence intensity (a.u.).
“TCCAACGGTGCCGCTTAATTAGTGATTAATTATCCTAATTCGGAGTCACCTAGTGCAG” was tested, and the binding signal was 16400 fluorescence intensity (a.u.).
“TGGAACTGTGCAAATTAAATTATGTGATATAGTGTGATTACGGAGTCACCTAGTGCAG” was tested, and the binding signal was 13300 fluorescence intensity (a.u.).
“TTAAAACTTAATTAGTTATACTTCCTTCGTACTCATAGAGCGGAGTCACCTAGTGCAG” was tested, and the binding signal was 17500 fluorescence intensity (a.u.).
“AAACCTAATTAATCATGCGCAAATGGCTTTCTTGTTTTGCCGGAGTCACCTAGTGCAG” was tested, and the binding signal was 22900 fluorescence intensity (a.u.).
“ATTAATTTCACTTTATTCTTCTTATAGATTACTACTAGTTCGGAGTCACCTAGTGCAG” was tested, and the binding signal was 10100 fluorescence intensity (a.u.).
For “GCTAATTGCACCCATCAATTCAACTCCTCCGAACCCACAACGGAGTCACCTAGTGCAG”, the binding signal was 30000 fluorescence intensity (a.u.).
“GGTTGATTGATCCGCCACGCAAGCTTTGCTACCTAACCATCGGAGTCACCTAGTGCAG” was tested, and the binding signal was 40500 fluorescence intensity (a.u.).
With “TGTTTTCCTAAGTGATTGGTGGGAAACCTCGTAGGATAAGCGGAGTCACCTAGTGCAG” the binding signal was 9180 fluorescence intensity (a.u.).
For “GAGTAATTACTAATTAGCTGGTACACTCAATCCAGTACGGCGGAGTCACCTAGTGCAG”, the binding signal was 59000 fluorescence intensity (a.u.).
